# About 1,800 (2.5%) of roughly 71,000 compounds were called active. Inconclusive results, whose numbers are uncertain, are shown with a selection of clear calls. The call rests on the fitted dose curve; in most records, active means well fitted activation curve with a large enough effect in the signal ratio, with a control signal flat (not every such curve was filed as active); inconclusive means small, poorly fitted or top-dose-only effect, or effect the other way, or a change in a side signal; inactive means flat fitted curve, though single readings scatter; the % refers to the signal ratio. Potencies beside an inconclusive call are fits to weak or partial responses and may not hold up.
# Assay: Cell signaling CRE-BLA (Fsk stim); on activity change, negative = inhibition: % of control where 0% means no effect
# Conditions: CHO CRE-bla reporter (cAMP response element driving beta-lactamase), forskolin EC10, beta-lactamase ratio; activity change, negative = inhibition: at 38.2 µM (top of the series) unless noted
# Procedure, shortened: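 Modulation of forskolin-driven signalling is measured in CHO cells carrying a CRE-controlled beta-lactamase reporter. Cells are stimulated with EC10 NKH 477 in the presence of titrated compound for 3 h at 37 °C, then loaded with CCF4 for 2 h at room temperature.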
# Potency means the concentration at half of the fitted maximal effect; tags describe the fitted curve by direction and shape.
SMILES,Potency,"activity change, negative = inhibition"
CCN(CC)CC(=O)Nc1ccc(-c2nc3cc(NC(=O)CN(CC)CC)ccc3o2)cc1,inactive,–
COc1ccc(-c2nc3cnc(N(C)C)nc3n(CCC#N)c2=O)cc1,active: 0.398 µM,–
Oc1ccc2cccnc2c1,"inconclusive: 7.94 µM [falling, partial curve, poor fit]",–
CCCCOC(=O)Nc1nnc(COc2ccccc2)s1,inactive,–
COCCn1cc(C(=O)N2CCN(C)CC2)c2c3ccccc3n(C)c2c1=O,inactive,–
Cc1ccccc1N=C(N)Nc1ccccc1C,inactive,–
CCOc1cc(NS(=O)(=O)CC)c(OCC)cc1NC(=O)c1ccco1,"inconclusive: 10 µM [rising, partial curve]",–
O=C(CNC(=O)c1ccco1)OCN1C(=O)c2ccccc2C1=O,"inconclusive: 10 µM [rising, partial curve]",–
C=CCn1c(=O)c2ccccc2n2c(SCC(=O)NCc3cccs3)nnc12,–,inconclusive: 26.8%
CCCn1c(NC(=O)c2ccccc2)nc2ccccc21,–,inconclusive: -17.9%
O=C(c1ccccc1)c1ccc(N2CCCC2)cc1,inactive,–
CCOc1ccc(C2C=C(c3ccc(C)cc3)Nc3ncnn32)cc1 (stereo not drawn),"inconclusive: 12.6 µM [falling, partial curve]",–
CCOC(=O)Cn1nc(C)c(-c2ccccc2)c1N,–,inconclusive: -27.5%
CN1CCN(c2ncc3nc(-c4cn(C)c5ccccc45)c(=O)n(CCc4ccccc4)c3n2)CC1,"inconclusive: 2.51 µM [rising, full curve]",–
CN1CCN(C(=O)c2ccc3c(=O)n(CCc4ccccc4)c(=S)[nH]c3c2)CC1,–,inconclusive: 21%
O=C(NC1CCCC1)C(NS(=O)(=O)c1cccc2nsnc12)c1ccccc1 (stereo not drawn),–,inconclusive: 0.719%
N=c1c2c(n(Cc3ccccc3)c3c1CCC3)CCC2,–,inconclusive: 25.7%
COc1cc2nc(C3CC3)n(NC(=O)c3ccc(Cl)cc3)c(=O)c2cc1OC,inactive,–
CCOC(=O)C1=C(N)Oc2cc(C)n(CCc3ccc(OC)c(OC)c3)c(=O)c2C1c1cccnc1 (stereo not drawn),"inconclusive: 7.94 µM [rising, partial curve]",–
C[C@]12CCC3c4ccc(O)cc4CCC3[C@@H]1CCC2=O (stereo partly drawn),–,inconclusive: 2.68%
COc1ccc(-c2noc(CN(C(=O)c3ccc(OC(C)=O)cc3)C(C)C)n2)cc1OC,"inconclusive: 25.1 µM [rising, single point]",–
COc1cccc(Cn2c(=O)c(CCc3ccccc3)nc3cncnc32)c1,–,inconclusive: -4.96%
Cc1cccc(CN2CCN(C(=O)c3ccccc3F)CC2)c1,"inconclusive: 3.98 µM [falling, partial curve]",–
